In PubChem BioAssay AID485344 (National Center for Advancing Translational Sciences (NCATS), 2010) one finds inhibition data, which are given here for 96 compounds.

In all, about 340,000 compounds went through this assay and about 6,900 (2%) were called active. No stated cut-off is given here; in the data, active means inhibition above about 30%; inactive means below that, where a call was filed. The list shows a part of the results, in another mix than the full data. Entries without a call were filed so in the source.

Sequence of UniProt P14416 (P14416 whole entry, looked up): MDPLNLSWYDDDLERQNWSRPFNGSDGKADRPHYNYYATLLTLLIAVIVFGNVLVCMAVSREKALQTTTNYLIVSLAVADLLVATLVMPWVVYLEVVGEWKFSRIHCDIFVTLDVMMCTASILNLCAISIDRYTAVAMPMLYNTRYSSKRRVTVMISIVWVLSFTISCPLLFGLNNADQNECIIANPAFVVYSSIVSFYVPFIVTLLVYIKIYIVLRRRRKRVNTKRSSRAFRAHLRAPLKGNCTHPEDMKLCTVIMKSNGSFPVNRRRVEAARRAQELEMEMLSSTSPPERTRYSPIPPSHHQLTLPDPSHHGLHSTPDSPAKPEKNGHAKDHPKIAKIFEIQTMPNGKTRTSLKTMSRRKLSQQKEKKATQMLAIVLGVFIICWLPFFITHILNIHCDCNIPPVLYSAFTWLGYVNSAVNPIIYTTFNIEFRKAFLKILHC

This test addresses D(2) dopamine receptor (Homo sapiens) (UniProt P14416). The test is described as follows: HTS Assay for Allosteric Antagonists of the Human D2 Dopamine Receptor: Primary Screen for Antagonists. Further: 0% is about no effect. As to conditions: HEK293 TREx D2 cells, calcium flux, dopamine EC80; at 10 µM; stronger effect = higher value. The procedure, abridged:
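Compounds are added to dye-loaded, induced HEK293 T-REx cells coupled to calcium release via D2; after a 3 min kinetic read an EC80 dopamine stimulus is given and fluorescence is recorded for 3 more min.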
Broadly, the inhibition is the relative decrease from the control value, in per cent. Turning to `O=C(CN1CCN(C(=O)c2ccco2)CC1)Nc1ccc2c(c1)OCCO2`, the inhibition was active: 53.5%. As for `CC(C)(C)c1ccccc1NC(=O)CSc1nc(-c2cccs2)cc(C(F)(F)F)n1`, the figure is -2.18%; as for `Cc1nn(CC(=O)Nc2cc(F)ccc2F)c(=O)c2cccn12`, -3.69%; as for `CC(C)c1noc(-c2ccccc2OCC(=O)Nc2ccccc2[N+](=O)[O-])n1`, -12.9%. To `Cc1cc(C)cc(OC(=O)N2CCOCC2)c1` belongs active: 37.8%; to `Cc1cc(Nc2ccc(Cl)cc2C)nc(-n2nc(C)cc2C)n1`, -17.1%; to `O=C(NCc1ccc2c(c1)CCN2C(=O)c1ccc(F)cc1)c1ccco1`, 3.44%.

For the compound `COc1ccccc1C(=O)Nc1cccc(C(=O)OCc2cc(=O)n3nc(C)sc3n2)c1`, the inhibition was -0.355%. To `O=C(c1cc2ccc3cccnc3c2[nH]1)N1CCN(c2ccc(Cl)cc2)CC1` belongs 1.5%; to `Cc1c(Cl)cccc1NC(=O)Cn1nnc2sc3c(c2c1=O)CCCC3`, 16.5%; to `O=C(Nc1cccc(Cl)c1Cl)c1cc(S(=O)(=O)NCCc2ccccc2)ccc1F`, -3.99%. As for `Cc1ccc(/C=N/NC(=O)c2cccs2)cc1[N+](=O)[O-]`, the figure is active: 35.3%; as for `O=C(CN1C(=O)C2(SCC(=O)N2c2ccccc2)c2ccccc21)NCc1ccccc1` (stereo unspecified), -19.3%. As for `NC(=O)CSc1ncc2c(n1)-c1ccccc1N(Cc1ccc(Cl)cc1)S2(=O)=O`, the figure is -1.44%; as for `C=Cc1ccc(COc2ccc3oc(-c4ccccc4)c(C(=O)OCC)c3c2)cc1`, 4.49%. In the case of `COc1ccc(CNC(=O)c2cc(=O)c3cc(C)ccc3o2)cc1`, the inhibition was -8.67%.

Turning to `CCOC(=O)c1ccc(NC(=O)C2(S(=O)(=O)c3ccc(Cl)cc3)CC2)cc1`, the inhibition was -9.85%. `Cc1cccc(C)c1NS(=O)(=O)c1ccc(NS(=O)(=O)c2ccc3c(c2)OCCO3)cc1`: the inhibition is -3.55%. As for `Cc1ccccc1NC(=O)CCC(=O)N1CC(C)Sc2ccccc21` (stereo unspecified), the inhibition was -9.09%. As for `Cc1ccc2oc(=O)c3cc(C(=O)NCCCN4CCCC(C)C4)sc3c2c1` (stereo unspecified), the figure is active: 42.8%. As for `COc1cccc(CNC(=O)CSC2=Nc3ccccc3C3=NC(C(C)C)C(=O)N23)c1` (stereo unspecified), the figure is 7.38%; as for `Cc1ccc(C)c(N2CCN(CCCNC(=O)c3ccc4nc(N5CCCCC5)sc4c3)CC2)c1`, 4.89%; as for `Cc1ccc(-c2nnc(Nc3ccccc3)c3ccccc23)cc1S(=O)(=O)NCc1nc2ccccc2[nH]1`, -4.27%.

As to `CCOC(=O)COc1ccc([N+](=O)[O-])cc1-c1ccnc2cc(-c3ccc(C)cc3)nn12`, the inhibition was -18.4%. As for `Cc1cccc(N2CCN(C(=O)CCS(=O)(=O)c3ccc4c(c3)oc(=O)n4C)CC2)c1C`, the figure is 8.69%; as for `COc1ccc(C(=O)N(c2ccc(OC)cc2)S(=O)(=O)c2ccc3c(c2)n(C)c(=O)n3C)cc1`, 0.806%. On to `CC(=O)c1cccc(N(CC(=O)Nc2ccccc2F)S(C)(=O)=O)c1`, for which the inhibition was active: 46.2%.

Take `CCOc1ccc(-c2cc(C)n3nc(C(=O)Nc4ccc(C)c(C)c4)cc3n2)cc1`: the inhibition stood at 25.6%. Take `CCc1ccc(N2CC(C)Cn3c2nc2c3c(=O)n(CC(=O)O)c(=O)n2C)cc1` (stereo unspecified): the inhibition was 14.8%. For the compound `CCc1nnc(SCC(=O)Nc2ccc(OC)c(OC)c2)c2cc3occc3n12`, the inhibition was determined as 10.8%.

`CC(Oc1ccccc1)C(=O)Nc1ccccc1C(=O)OCc1cc(=O)n2nc(C3CC3)sc2n1` (stereo unspecified): the inhibition worked out at 4.08%. Turning to `COC(=O)Cc1c(C)nc2nc(NCc3ccc(Br)cc3)[nH]n2c1=O`, the inhibition is -6.49%. As for `CCOC(=O)CN(Cc1ccccc1)C(C(=O)NC1CCCCC1)c1ccccc1` (stereo unspecified), the figure is 4.29%; as for `Cc1ccccc1OCc1nnc(SCc2cc(=O)c3cc(F)ccc3[nH]2)n1C`, 1.6%.

On to `N#C/C(=C\c1cccc(F)c1)c1nc(-c2cc3ccccc3oc2=O)cs1`, for which the inhibition came to 0.715%.

As for `Cc1ccc2c(c1)c1c(c(=O)n(Cc3ccccc3)c(=O)n1Cc1cccc(F)c1)n2C`, the inhibition was -0.455%. To `COc1ccc(-c2ccc(CCC(=O)O)n2-c2ccccc2C(F)(F)F)cc1` belongs 4.35%. To `COc1ccc(-c2nc3ccccc3o2)cc1NC(=O)c1cc([N+](=O)[O-])ccc1N1CCOCC1` belongs -27.2%; to `CCC1CN(CC(=O)NCc2cccc(Br)c2)c2ccccc2S1` (stereo unspecified), 4%; to `c1ccc2c(c1)nc1n2CC2CON(C3CCCCC3)C12` (stereo unspecified), active: 37%. As for `COc1ccc(CNC(=O)C2CCN(S(=O)(=O)N3CCC(C)CC3)CC2)c(OC)c1`, the figure is 2.34%.

For the compound `Cc1ccc(NS(=O)(=O)c2cn(C)c(C)n2)c(Br)c1`, the inhibition came to 0.694%. To `Cc1cccc(CNC(=O)c2ccc(Cn3c(SCc4cccc(F)c4)nc4cccnc43)cc2)c1` belongs -9.25%.

Turning to `COc1cc(CN(C(=O)c2ccc(C)cc2)C2CCS(=O)(=O)C2)cc(OC)c1OC` (stereo unspecified), the inhibition was determined as 14.8%. As for `CCCSc1ncc(Cl)c(C(=O)Nc2ccc(S(=O)(=O)N3CCCCC3C)cc2)n1` (stereo unspecified), the figure is 13.1%. Turning to `COc1cccc(NC(=O)C2CC(=O)N(c3ccc(Br)cc3)C2)c1` (stereo unspecified), the inhibition was -3.14%. To `COc1ccc(NC(=O)CCn2cnnn2)cc1` belongs 7.48%; to `CCOc1ccc(-n2cc(-c3ccccc3)c3c(NCc4ccccc4)ncnc32)cc1`, -9.87%; to `COC(=O)Cc1c(C)c2ccc3c(c2oc1=O)CN(Cc1ccc(Cl)cc1)CO3`, 8.14%. As for `COCCn1c(SCc2ccccc2F)nc2c([nH]c3ccccc32)c1=O`, the figure is 8.86%. To `Cc1ccc(-n2c(=O)c3ccc(C(=O)NCc4ccccc4Cl)cc3n(Cc3cccc(F)c3)c2=O)cc1` belongs 1.79%; to `Cc1ccc(CNC(=O)C2CCCN(c3nn4cc(-c5ccc(C)cc5)nc4s3)C2)cc1` (stereo unspecified), -17.5%; to `COc1ccc(N2CCN(C(CNC(=O)c3c(F)cccc3F)c3ccc4c(c3)OCO4)CC2)cc1` (stereo unspecified), 15%.

On to `CCOC(=O)c1cc2c(=O)n3ccccc3nc2n(CC2CCCO2)c1=NC(=O)c1ccccc1OCC` (stereo unspecified), for which the inhibition was determined as 11.8%.

Turning to `Cc1ccc(-n2nc(C(=O)N3CCN(c4cc(C)ccc4C)CC3)c3c4ccccc4n(C)c3c2=O)cc1`, the inhibition was -4.51%. To `Cc1ccc(-n2c(N)cc(=O)nc2SCC(=O)N2CCN(c3ccccc3)CC2)cc1` belongs active: 63.6%.

Turning to `Cc1c(NC(=O)C(C)(C)C)cccc1-c1nc2ccccc2s1`, the inhibition came out at 6.17%. To `CC1Cc2cc(S(=O)(=O)CCC(=O)Nc3ccc(F)cc3Cl)ccc2N1C(=O)C1CC1` (stereo unspecified) belongs -0.691%; to `Cn1cc(S(=O)(=O)N2CCc3ccccc32)cc1C(=O)Nc1ccc(C(F)(F)F)cc1`, 0.494%; to `CCOc1ccccc1NC(=O)Cn1c(=O)n(-c2ccc(Cl)cc2)c(=O)c2oc3ccccc3c21`, 17.8%. As for `CCN(CC)c1ccc(NC(=O)Cn2cc3c(n2)CCCC3)c(C)c1`, the figure is -13.2%; as for `CCc1ccc(NC(=O)CSc2nc3c([nH]c4ccccc43)c(=O)n2C)cc1`, -25.5%; as for `COc1cccc(CN2CCCN(Cc3ccc(F)cc3)S2(=O)=O)c1`, 8.77%. As for `CCCOc1ccc(C(=O)Nc2cc(-c3nc4ccccc4[nH]3)ccc2C)cc1`, the figure is 1.6%. As to `CN(CCOc1ccccc1)CC(=O)Nc1ccc(Br)cc1F`, the inhibition is active: 52.9%. As for `COc1ccc(OC)c(CN2CCN(C(=O)c3ccco3)CC2)c1`, the figure is active: 83%.

With `Cc1ccccc1OCC(=O)Nc1nnc(SCc2cc(=O)n3cccc(C)c3n2)s1`, the inhibition was -5.95%. To `COc1ccc(C)cc1NC(=O)C1CCN(S(=O)(=O)Cc2ccccc2)CC1` belongs 5.68%. As for `Cc1ccc(O)c(NC(=O)C2=CC(c3cccs3)=NS(=O)(=O)N2C)c1`, the figure is 5.34%. To `COc1cccc(CNC(=O)c2cc3cc(C)ccc3n2C)c1` belongs 4.38%. As to `CC(C)n1c(SCC(=O)c2ccc(F)cc2)nc2c(sc3ccccc32)c1=O`, the inhibition is -2.14%. To `COc1ccccc1OCCCn1c(C2CC(=O)N(c3ccc(F)cc3)C2)nc2ccccc21` (stereo unspecified) belongs -6.64%; to `S=C(Nc1ccc2c(c1)OCO2)NC1CCN(Cc2ccccc2)CC1`, active: 58.9%. As for `Cc1cccc2nc(Cn3c(=O)n(-c4ccccc4)c(=O)c4c5c(sc43)CCC5)cc(=O)n12`, the figure is -8.07%; as for `COc1ccc(CCNC(=O)c2c(Nc3ccccc3C)sc(C(=O)c3ccccc3)c2N)cc1OC`, -12.7%. To `CCCCC(CC)CNC(=O)c1ccc(Cn2c(=O)[nH]c3cc(OC)c(OC)cc3c2=O)cc1` (stereo unspecified) belongs 5%; to `CCOc1ccccc1NC(=O)CSc1nnc(CC)c(CC)n1`, 7.27%.

As to `CCN1c2ccccc2-c2nc(SCC(=O)Nc3cc(OC)cc(OC)c3)ncc2S1(=O)=O`, the inhibition came to 10.6%.

Take `COc1ccc(-c2nn(C)c3sc(C(=O)Nc4cc(OC)c(OC)c(OC)c4)cc23)cc1OC`: the inhibition was 6.62%.

In the case of `CCCN(C(=O)c1c(C)oc2ncn(CC(C)C)c(=O)c12)c1ccccc1C`, the inhibition was -7.24%. Turning to `CCOc1ccc(-c2nnc(SCC(=O)NCc3ccccc3)nc2-c2ccc(OCC)c(OC)c2)cc1OC`, the inhibition is 16%. As for `CCc1ccc(C2CC(=O)Nc3c2c(C)nn3-c2nc(C)cc(C)n2)cc1` (stereo unspecified), the figure is -0.272%.

On to `CCOc1ccccc1NC(=O)N1CCN(Cc2nc3ccc(C)cc3o2)CC1`, for which the inhibition is -3.4%.

Consider `Cc1ccc(C)c(N2CCN(S(=O)(=O)c3c(C)nc4sccn4c3=O)CC2)c1`, for which the inhibition was 26.9%. As for `CCOc1ccccc1NC(=O)Cn1cnc2sc(C)c(S(=O)(=O)N3CCC(C)CC3)c2c1=O`, the figure is -7.05%; as for `COc1cccc(Nc2c3c(nc4nncn24)CCC3)c1`, 2.84%. As for `Cc1cc(C)cc(-n2c(SCC(N)=O)nc3c(oc4ccccc43)c2=O)c1`, the figure is -0.199%; as for `CCCCOc1cccc(C(=O)Nc2ccc3oc(-c4cccnc4)nc3c2)c1`, 7.93%. As for `Cc1ccc(NC(=O)C2OCCc3ccccc32)cc1C` (stereo unspecified), the figure is active: 41.5%. Turning to `CCc1cccc(NC(=O)CCS(=O)(=O)c2cc(Br)cc3c2N(C(C)=O)CC3)c1`, the inhibition is -4.86%. To `O=C(CSc1nc2ccccc2nc1Cc1ccccc1)N1CCCCC1` belongs 2.19%; to `COc1cc(OC)cc(C(=O)Nc2ccc3c(c2)N(C2CCCC2)C(=O)c2ccccc2S3)c1`, -4.34%. As for `O=C(NCc1ccccc1Cl)c1cc2ccccc2o1`, the figure is 13.2%; as for `COc1cc(-c2nc3ncccn3c2Nc2ccc(C)cc2C)ccc1O`, 0.608%; as for `COc1ccc(C(=O)Nc2nnc(S(=O)(=O)N(C)c3ccc(Cl)cc3)s2)cc1OC`, -6.4%. To `Cc1ccccc1CNC(=O)C(=O)NCC(c1ccco1)S(=O)(=O)c1ccccc1` (stereo unspecified) belongs 10.1%.
